Data taken from the supplement of paper PMC10037445.
Several values for one entry are separate records, joined by “and”; a condition that tells them apart may be missing. Equal entries are not always repeated. ± gives the standard deviation of the averaged measurements. In all, about 2,900 compounds were measured (“IRF Lucia reporter activity, fold change vs agonist alone”: median about 0.9, highest 2% from about 2.8 on). This is one part of the list.

Columns and labels:
RAW-Dual [1] = assay: IRF Lucia reporter activity, fold change vs agonist alone; cytotoxicity flag (confluency mask): not cytotoxic; higher = enhanced IRF activity
Procedure, shortened: (§1)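 RAW-Dual macrophages were seeded in DMEM at 50,000 cells/well in 384-well plates, given 50 nL of library stock by pin tool, and given a PRR agonist 1 h later. Plates were held at 37 °C, 5% CO2 for 20 hours, after which supernatant was read for IRF by QuantiLuc luminescence and for NF-κB by QuantiBlue absorbance at 620 nm. Reporter activity is expressed as fold change over wells that received agonist alone. A well was called cytotoxic when IncuCyte confluency fell below 70% of agonist controls in both mask sets.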

RAW-Dual [2] = assay: IRF Lucia reporter activity, fold change vs agonist alone; higher = enhanced IRF activity; settings: cytotoxicity flag (confluency mask): not cytotoxic, agonist: MPLA (TLR4) […]
Procedure, shortened: as §1

RAW-Dual [3] = assay: IRF Lucia reporter activity, fold change vs agonist alone; cytotoxicity flag (confluency mask): cytotoxic (confluency <70% of control); higher = enhanced IRF activity
Procedure, shortened: as §1

[4] = agonist: 3'3'-cGAMP (STING) 10 ug/mL
[5] = library stock concentration (final ~1000-fold dilution): 10 mM
[6] = library stock concentration (final ~1000-fold dilution): 10 mM water

Structure (SMILES): Nc1nc(N)c2nc(-c3cccc(O)c3)c(-c3cccc(O)c3)nc2n1 (library stock concentration (final ~1000-fold dilution): 10 mM)
- IRF Lucia reporter activity (RAW-Dual [1]; [4]): 0.982
- IRF Lucia reporter activity (RAW-Dual [1]; agonist: LPS (TLR4) 0.1 ug/mL): 1

Structure (SMILES): Cn1cnc2c(F)c(Nc3ccc(Br)cc3Cl)c(C(=O)NOCCO)cc21 (library stock concentration (final ~1000-fold dilution): 10 mM)
- IRF Lucia reporter activity (RAW-Dual [1]; [4]): 0.69
- IRF Lucia reporter activity (RAW-Dual [1]; agonist: LPS (TLR4) 0.1 ug/mL): 3.1

Structure (SMILES): Cn1cnc2c(F)c(Nc3ccc(Br)cc3Cl)c(C(=O)NOCCO)cc21
- IRF Lucia reporter activity (RAW-Dual [2]; [5]): 2.77

Structure (SMILES): Cl.OCCNCc1ccc(OCc2ccc(F)cc2)c(OCc2ccc(F)cc2)c1 (library stock concentration (final ~1000-fold dilution): 10 mM)
- IRF Lucia reporter activity (RAW-Dual [3]; [4]): 0.0797
- IRF Lucia reporter activity (RAW-Dual [3]; agonist: LPS (TLR4) 0.1 ug/mL): 0.952

Structure (SMILES): NC(=O)c1ccccc1 (library stock concentration (final ~1000-fold dilution): 10 mM)
- IRF Lucia reporter activity (RAW-Dual [1]; [4]): 1.04
- IRF Lucia reporter activity (RAW-Dual [1]; agonist: LPS (TLR4) 0.1 ug/mL): 1.13

Structure (SMILES): NC(=O)c1ccccc1
- IRF Lucia reporter activity (RAW-Dual [2]; [5]): 0.951

Structure (SMILES): O=C(c1ccccc1)c1ccc2nc(NC(=O)c3csc(C4CCN(c5ncnc6ccsc56)CC4)n3)[nH]c2c1
- IRF Lucia reporter activity (RAW-Dual [2]; [5]): 1.73 ± 0.62

Structure (SMILES): O=C(c1ccccc1)c1ccc2nc(NC(=O)c3csc(C4CCN(c5ncnc6ccsc56)CC4)n3)[nH]c2c1 (library stock concentration (final ~1000-fold dilution): 10 mM)
- IRF Lucia reporter activity (RAW-Dual [1]; [4]): 0.269 and 0.414
- IRF Lucia reporter activity (RAW-Dual [1]; agonist: LPS (TLR4) 0.1 ug/mL): 2.37 and 1.82

Structure (SMILES): Cn1c(N2CCCCS2(=O)=O)nc(C(=O)NCc2ccc(F)cc2)c(O)c1=O
- IRF Lucia reporter activity (RAW-Dual [2]; [5]): 1.65

Structure (SMILES): Cn1c(N2CCCCS2(=O)=O)nc(C(=O)NCc2ccc(F)cc2)c(O)c1=O (library stock concentration (final ~1000-fold dilution): 10 mM)
- IRF Lucia reporter activity (RAW-Dual [1]; [4]): 1.05
- IRF Lucia reporter activity (RAW-Dual [1]; agonist: LPS (TLR4) 0.1 ug/mL): 0.931

Structure (SMILES): C=CC1(C)CC(OC(=O)CSCCN(CC)CC)C2(C)C(C)CCC3(CCC(=O)C32)C(C)C1O.O=C(O)/C=C/C(=O)O (configuration not stated) (library stock concentration (final ~1000-fold dilution): 10 mM)
- IRF Lucia reporter activity (RAW-Dual [1]; [4]): 0.347
- IRF Lucia reporter activity (RAW-Dual [1]; agonist: LPS (TLR4) 0.1 ug/mL): 0.803

Structure (SMILES): C=CC1(C)CC(OC(=O)CSCCN(CC)CC)C2(C)C(C)CCC3(CCC(=O)C32)C(C)C1O.O=C(O)/C=C/C(=O)O (configuration not stated)
- IRF Lucia reporter activity (RAW-Dual [2]; [5]): 0.996

Structure (SMILES): COC(=O)NC(C(=O)N1CCCC1c1ncc(-c2ccc(-c3ccc(-c4cnc(C5CCCN5C(=O)C(NC(=O)OC)C(C)C)[nH]4)cc3)cc2)[nH]1)C(C)C.Cl.Cl (configuration not stated)
- IRF Lucia reporter activity (RAW-Dual [2]; [5]): 5.97

Structure (SMILES): COC(=O)NC(C(=O)N1CCCC1c1ncc(-c2ccc(-c3ccc(-c4cnc(C5CCCN5C(=O)C(NC(=O)OC)C(C)C)[nH]4)cc3)cc2)[nH]1)C(C)C.Cl.Cl (configuration not stated) (library stock concentration (final ~1000-fold dilution): 10 mM)
- IRF Lucia reporter activity (RAW-Dual [1]; [4]): 0.948
- IRF Lucia reporter activity (RAW-Dual [1]; agonist: LPS (TLR4) 0.1 ug/mL): 7.56

Structure (SMILES): CC(C)NCC(O)COc1cccc2[nH]ccc12 (configuration not stated)
- IRF Lucia reporter activity (RAW-Dual [2]; [5]): 1.18

Structure (SMILES): CC(C)NCC(O)COc1cccc2[nH]ccc12 (configuration not stated) (library stock concentration (final ~1000-fold dilution): 10 mM)
- IRF Lucia reporter activity (RAW-Dual [1]; [4]): 1.09
- IRF Lucia reporter activity (RAW-Dual [1]; agonist: LPS (TLR4) 0.1 ug/mL): 1.35

Structure (SMILES): COc1cccc(C(N)=O)c1 (library stock concentration (final ~1000-fold dilution): 10 mM)
- IRF Lucia reporter activity (RAW-Dual [1]; [4]): 1.02
- IRF Lucia reporter activity (RAW-Dual [1]; agonist: LPS (TLR4) 0.1 ug/mL): 1.22

Structure (SMILES): COc1cccc(C(N)=O)c1
- IRF Lucia reporter activity (RAW-Dual [2]; [5]): 1.02

Structure (SMILES): Nc1ccn(CC(CO)OCP(=O)(O)O)c(=O)n1 (configuration not stated)
- IRF Lucia reporter activity (RAW-Dual [2]; [6]): 1.26

Structure (SMILES): Nc1ccn(CC(CO)OCP(=O)(O)O)c(=O)n1 (configuration not stated) (library stock concentration (final ~1000-fold dilution): 10 mM water)
- IRF Lucia reporter activity (RAW-Dual [1]; [4]): 0.847
- IRF Lucia reporter activity (RAW-Dual [1]; agonist: LPS (TLR4) 0.1 ug/mL): 0.826

Structure (SMILES): CC1COC2=C1C(=O)C(=O)c1c2ccc2c1CCCC2(C)C (configuration not stated) (library stock concentration (final ~1000-fold dilution): 10 mM)
- IRF Lucia reporter activity (RAW-Dual [1]; [4]): 0.339
- IRF Lucia reporter activity (RAW-Dual [1]; agonist: LPS (TLR4) 0.1 ug/mL): 0.395

Structure (SMILES): CC1COC2=C1C(=O)C(=O)c1c2ccc2c1CCCC2(C)C (configuration not stated)
- IRF Lucia reporter activity (RAW-Dual [2]; [5]): 0.44

Structure (SMILES): CC/C(=C(\c1ccc(O)cc1)c1ccc(OCCNC)cc1)c1ccccc1.Cl (library stock concentration (final ~1000-fold dilution): 10 mM)
- IRF Lucia reporter activity (RAW-Dual [3]; [4]): 0.216
- IRF Lucia reporter activity (RAW-Dual [3]; agonist: LPS (TLR4) 0.1 ug/mL): 0.154

Structure (SMILES): COc1cc(F)c(C(C)C)cc1-c1ccc(C(F)(F)F)cc1CN1C(=O)OC(c2cc(C(F)(F)F)cc(C(F)(F)F)c2)C1C (configuration not stated) (library stock concentration (final ~1000-fold dilution): 10 mM)
- IRF Lucia reporter activity (RAW-Dual [1]; [4]): 1.12
- IRF Lucia reporter activity (RAW-Dual [1]; agonist: LPS (TLR4) 0.1 ug/mL): 1.14

Structure (SMILES): COc1cc(F)c(C(C)C)cc1-c1ccc(C(F)(F)F)cc1CN1C(=O)OC(c2cc(C(F)(F)F)cc(C(F)(F)F)c2)C1C (configuration not stated)
- IRF Lucia reporter activity (RAW-Dual [2]; [5]): 1.1

Structure (SMILES): N=C(N)NCCCCC(N)C(=O)O (configuration not stated)
- IRF Lucia reporter activity (RAW-Dual [2]; [6]): 1.25

Structure (SMILES): N=C(N)NCCCCC(N)C(=O)O (configuration not stated) (library stock concentration (final ~1000-fold dilution): 10 mM water)
- IRF Lucia reporter activity (RAW-Dual [1]; [4]): 1.14
- IRF Lucia reporter activity (RAW-Dual [1]; agonist: LPS (TLR4) 0.1 ug/mL): 0.88
